The other results are listed elsewhere or left out.
target: T1, OsWOX13 (Oryza sativa, UniProt Q5QMM3 1-267); assay: protein-binding microarray (RPBM); PBS, 2% BSA, 51.3 ng/ul salmon testes DNA, 50 uM zinc acetate, 200 nM TF, 25 C, 1 h; high values mean tight binding; conditions: protein: recombinant; tags: N-terminal polyhistidine and DsRed monomer fusion (pET32a); label: CyDye5-dUTP incorporated in the synthesized complementary strand; 3' TTTTT single-stranded linker to array surface; dsDNA, one strand shown
T1 sequence: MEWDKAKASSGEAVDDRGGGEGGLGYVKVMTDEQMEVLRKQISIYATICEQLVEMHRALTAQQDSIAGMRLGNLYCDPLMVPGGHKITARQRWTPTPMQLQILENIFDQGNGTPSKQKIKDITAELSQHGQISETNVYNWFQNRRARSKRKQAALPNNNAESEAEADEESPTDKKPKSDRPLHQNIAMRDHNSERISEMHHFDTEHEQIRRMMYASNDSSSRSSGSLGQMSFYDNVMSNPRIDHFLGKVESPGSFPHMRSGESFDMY
Outline: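 Transcription factors, each fused N-terminally to a polyhistidine tag and DsRed, were expressed in E. coli BL21-CodonPlus and purified on Ni–NTA. A custom Agilent array was made double-stranded by primer extension with Cy5-dUTP and blocked with 2% BSA. It was incubated with 200 nM protein in PBS, 2% BSA, salmon testes DNA and 50 µM zinc acetate at 25 °C for 1 h, then washed. The binding signal is per-feature fluorescence intensity (arbitrary units) read on an Axon 4000B scanner.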

Q: “GCTGATTGATTCATTCTGATCTGAACATATAGACAACCATCGGAGTCACCTAGTGCAG” was tested. Which binding signal did it give?
A: Its binding signal is 54700 fluorescence intensity (a.u.).

Q: Which binding signal does the source give for “GTTAATTGAATACGTGCTTGCACGTCTTGTATTACAAAACCGGAGTCACCTAGTGCAG” here?
A: The binding signal was 25300 fluorescence intensity (a.u.).

Q: With “CAATAATTATCTATAAGCATATACTACACCATTAATATATCGGAGTCACCTAGTGCAG” as the sequence, how does the binding signal read?
A: The binding signal was 19500 fluorescence intensity (a.u.).

Q: How did the binding signal turn out when “ATACAAATTTTCCATGTAATCATATGAATTAGTTCCAGAACGGAGTCACCTAGTGCAG” was run?
A: The binding signal was 4820 fluorescence intensity (a.u.).

Q: With “CCCAGAGAGTTAATTACTGTGGTTGGGTGGCAGTTACTGCCGGAGTCACCTAGTGCAG” as the sequence, how does the binding signal read?
A: Its binding signal is 3360 fluorescence intensity (a.u.).

Q: For “CTGTAGACTGGCTGACTGGGGATTAATCAGTTCTCACATGCGGAGTCACCTAGTGCAG”, which binding signal is on record?
A: Its binding signal is 19000 fluorescence intensity (a.u.).

Q: Which binding signal does the source give for “CCTTGGTAATAATTTGCTCAGTGATGCAAATCAAACTGGGCGGAGTCACCTAGTGCAG” here?
A: The binding signal was 10600 fluorescence intensity (a.u.).

Q: For “CCTCTGGATTGAACGGCAGGAGATACCTAAGCTAGCTAGCCGGAGTCACCTAGTGCAG”, which binding signal is on record?
A: The binding signal was 3220 fluorescence intensity (a.u.).

Q: For “AATATTAATTTGGATTCAAACTTCCTTCTTCAAATATCTTCGGAGTCACCTAGTGCAG”, which binding signal is on record?
A: Its binding signal is 14100 fluorescence intensity (a.u.).

Q: With “TTTGATGATAAATCAAGTTAAAATAAAATAAATGATATTACGGAGTCACCTAGTGCAG” as the sequence, how does the binding signal read?
A: The binding signal was 8320 fluorescence intensity (a.u.).

Q: Which binding signal does the source give for “CTAATTTGTCAATCCATTTTCATCCAAGTATATCCAATTCCGGAGTCACCTAGTGCAG” here?
A: The binding signal was 30100 fluorescence intensity (a.u.).

Q: Which binding signal does the source give for “TGTGACTGAAAAGTTGTGTGTGTATGACAGGTTGATGTGACGGAGTCACCTAGTGCAG” here?
A: Its binding signal is 9260 fluorescence intensity (a.u.).

Q: How did the binding signal turn out when “AATTGATTAAGATGATGATGAAAGATAATACAGCTCGATCCGGAGTCACCTAGTGCAG” was run?
A: Its binding signal is 27100 fluorescence intensity (a.u.).

Q: With “ATAATTAACAGCATCTCTAACGCAATGGGGTTGCTTCTTGCGGAGTCACCTAGTGCAG” as the sequence, how does the binding signal read?
A: Its binding signal is 30500 fluorescence intensity (a.u.).

Q: With “CTTAACGGCTGTGATTGATTGACGGTGTGATGTATACATACGGAGTCACCTAGTGCAG” as the sequence, how does the binding signal read?
A: Its binding signal is 39600 fluorescence intensity (a.u.).

Q: How did the binding signal turn out when “GGTGATGAGTGGTGGGGAGAAGGATGGCTACCAACTTGGACGGAGTCACCTAGTGCAG” was run?
A: The binding signal was 3730 fluorescence intensity (a.u.).

Q: How did the binding signal turn out when “TGCGATTGATTCGGTATTAGAGCCTGCATACGTGTCATCTCGGAGTCACCTAGTGCAG” was run?
A: The binding signal was 20500 fluorescence intensity (a.u.).

Q: Which binding signal does the source give for “TTATAATTGACATGAGTGTTCGTATTTACACATAATTATTCGGAGTCACCTAGTGCAG” here?
A: The binding signal was 26300 fluorescence intensity (a.u.).

Q: With “CTAATAACAAAATAAATTACAGAATCCGTCTATAAACCGCCGGAGTCACCTAGTGCAG” as the sequence, how does the binding signal read?
A: The binding signal was 8520 fluorescence intensity (a.u.).

Q: How did the binding signal turn out when “TTTTCTTAATTACAGGTGGAATTAATCAGCTGTGGTGTGACGGAGTCACCTAGTGCAG” was run?
A: Its binding signal is 10200 fluorescence intensity (a.u.).

Q: How did the binding signal turn out when “ATTAACTTGACCACTAATTCACTGTCTTAAATTACTGCTGCGGAGTCACCTAGTGCAG” was run?
A: The binding signal was 8000 fluorescence intensity (a.u.).

Q: How did the binding signal turn out when “AGATATTCAATTAACTATATACCGTATCTCTCTTCGTTTTCGGAGTCACCTAGTGCAG” was run?
A: The binding signal was 13400 fluorescence intensity (a.u.).

Q: Which binding signal does the source give for “ACCTGTAGATTTTATGATTAGGTGAGCATATTTTATATGTCGGAGTCACCTAGTGCAG” here?
A: The binding signal was 9800 fluorescence intensity (a.u.).

Q: For “GATGATGTGACAGGACGCGTGAAGTGTGGGCCATAGACAACGGAGTCACCTAGTGCAG”, which binding signal is on record?
A: Its binding signal is 17000 fluorescence intensity (a.u.).

Q: How did the binding signal turn out when “AAATTAAATTGCCCGGATCAATGGCTACAAATACCCCATGCGGAGTCACCTAGTGCAG” was run?
A: Its binding signal is 15200 fluorescence intensity (a.u.).

Q: “CCTCCTGCATCGTCAAATCATGATGGATTGTTATTGGACCCGGAGTCACCTAGTGCAG” was tested. Which binding signal did it give?
A: Its binding signal is 6050 fluorescence intensity (a.u.).

Q: With “GCAATGATTATTCTAAACATGAACTTACTTTGACACAAATCGGAGTCACCTAGTGCAG” as the sequence, how does the binding signal read?
A: The binding signal was 26400 fluorescence intensity (a.u.).

Q: How did the binding signal turn out when “AGGGTGATTGACAGGTGGGTCCATCCCCTCACATGCCAGGCGGAGTCACCTAGTGCAG” was run?
A: The binding signal was 64800 fluorescence intensity (a.u.).

Q: Which binding signal does the source give for “TGCATGAACAAATTGATCACAAGGTATGGTATGGTATGATCGGAGTCACCTAGTGCAG” here?
A: Its binding signal is 7540 fluorescence intensity (a.u.).

Q: For “CGCTGACAGGTGGGCCCCAGGGTACGCGTCTCCCGCTGCGCGGAGTCACCTAGTGCAG”, which binding signal is on record?
A: Its binding signal is 11900 fluorescence intensity (a.u.).

Q: For “GAAGAGATCAATCACTCCGTTGGTTTTAAGTCACTACGAACGGAGTCACCTAGTGCAG”, which binding signal is on record?
A: The binding signal was 3860 fluorescence intensity (a.u.).

Q: Which binding signal does the source give for “ATTACCTATTATTGCTTGTTACTTATTACTTCCCTTTAGTCGGAGTCACCTAGTGCAG” here?
A: Its binding signal is 5020 fluorescence intensity (a.u.).

Q: How did the binding signal turn out when “GAGGGGATCGATTCGATTGATTTGCCAACCACAAGCTACTCGGAGTCACCTAGTGCAG” was run?
A: The binding signal was 5390 fluorescence intensity (a.u.).

Q: “CAAAGTGACAAATTAATGCACGATTAATTAAGTATTAGCTCGGAGTCACCTAGTGCAG” was tested. Which binding signal did it give?
A: The binding signal was 17900 fluorescence intensity (a.u.).

Q: “ACCAAGATTGACCTCAAGTCACCTGCACACAATCAGACAACGGAGTCACCTAGTGCAG” was tested. Which binding signal did it give?
A: The binding signal was 15500 fluorescence intensity (a.u.).

Q: With “CCAAACTGTCATCCATCCGCATCACCTCACCGGTATAAAGCGGAGTCACCTAGTGCAG” as the sequence, how does the binding signal read?
A: Its binding signal is 3250 fluorescence intensity (a.u.).

Q: How did the binding signal turn out when “CACGTTTATCTTTATTTGATTGAATAATATTATAATATAGCGGAGTCACCTAGTGCAG” was run?
A: Its binding signal is 20800 fluorescence intensity (a.u.).

Q: “CTAATACTTAATTAATCACGCGCTAATAAACCGCTCCGTTCGGAGTCACCTAGTGCAG” was tested. Which binding signal did it give?
A: Its binding signal is 28100 fluorescence intensity (a.u.).

Q: Which binding signal does the source give for “AGAATAATTGTATTATCTCGATATAATTGACTGAGTTCGACGGAGTCACCTAGTGCAG” here?
A: The binding signal was 25200 fluorescence intensity (a.u.).

Q: With “CTAGATTACAATAAATTTTAAATGGAAACAAACAGGCCGTCGGAGTCACCTAGTGCAG” as the sequence, how does the binding signal read?
A: The binding signal was 30100 fluorescence intensity (a.u.).

Q: With “ATTAACTATAATTATCGGCTGCAATCTAATTCGAATGTAGCGGAGTCACCTAGTGCAG” as the sequence, how does the binding signal read?
A: The binding signal was 30300 fluorescence intensity (a.u.).

Q: How did the binding signal turn out when “CACAAATTAGTTCAGAAATTACTAGTGAATTTCTGGGCGTCGGAGTCACCTAGTGCAG” was run?
A: Its binding signal is 35500 fluorescence intensity (a.u.).

Q: Which binding signal does the source give for “ACCTTAATGGAGAAGGAGATGAATCTCAGCCGCGTCATCCCGGAGTCACCTAGTGCAG” here?
A: Its binding signal is 9070 fluorescence intensity (a.u.).

Q: “TACTAATTTAGAGTATTAAACATAAACTAATAATAAAAGTCGGAGTCACCTAGTGCAG” was tested. Which binding signal did it give?
A: The binding signal was 9830 fluorescence intensity (a.u.).

Q: For “GTGACAAGTACTAATTAATTACCCACATCTCCCAAGGACCCGGAGTCACCTAGTGCAG”, which binding signal is on record?
A: The binding signal was 19800 fluorescence intensity (a.u.).

Q: Which binding signal does the source give for “TCCTGATAGGGCTAGGTAGCGGTTGGTTAATGTGGTGAGGCGGAGTCACCTAGTGCAG” here?
A: The binding signal was 4990 fluorescence intensity (a.u.).

Q: For “TTTAGATAATTACTGATTGTGTGTTTGGCCAGGAACTAGGCGGAGTCACCTAGTGCAG”, which binding signal is on record?
A: The binding signal was 22000 fluorescence intensity (a.u.).

Q: How did the binding signal turn out when “GCTTAAATCAACGGCCGAGATTACTCGGAGACTCTTCGCACGGAGTCACCTAGTGCAG” was run?
A: Its binding signal is 8740 fluorescence intensity (a.u.).

Q: “CTGATTACAGCTGTACTACGCTACACTGTCTGTATTGCTACGGAGTCACCTAGTGCAG” was tested. Which binding signal did it give?
A: Its binding signal is 3710 fluorescence intensity (a.u.).

Q: For “ATATAAATCAGAAAGGAATTTCGCACAGATGCACGGGCTTCGGAGTCACCTAGTGCAG”, which binding signal is on record?
A: The binding signal was 3480 fluorescence intensity (a.u.).

Q: How did the binding signal turn out when “TCTGTCAACTGCTAATTAACTTTATGAAACGCTGATGCTTCGGAGTCACCTAGTGCAG” was run?
A: Its binding signal is 15700 fluorescence intensity (a.u.).

Q: For “AACAAACTAAATTGAGTTTAAATTTCACCCAAATTTATTTCGGAGTCACCTAGTGCAG”, which binding signal is on record?
A: The binding signal was 15400 fluorescence intensity (a.u.).

Q: For “TACTTTGATTTGCACACAATCAAATGTACAGTAGTACATGCGGAGTCACCTAGTGCAG”, which binding signal is on record?
A: Its binding signal is 28500 fluorescence intensity (a.u.).

Q: With “ATAACTGTAACATTGCATTGAATGTCTTGGCTCCCAGCTTCGGAGTCACCTAGTGCAG” as the sequence, how does the binding signal read?
A: The binding signal was 3920 fluorescence intensity (a.u.).
